Assay results: paper PMC5515408
The list shows a part of the results. At the low end of the ranking, values are background and their order means little.

Biological target: MAX:MAX (p21) (UniProt P61244-2)
Test: protein-binding microarray (anti-MAX antibody)
Conditions: PBM: 15 mM Tris-HCl pH 7.5, 100 mM KCl, 0.075% NP40, 7.5 mM beta-mercaptoethanol, 375 ng/ul BSA, 8 ng/ul poly(dA-dT):(dA-dT), 550 ng complex, 60 min, room …; high values mean tight binding; double strand, one strand shown; sequences stand for … in CCGGC…TTAATAGCTAAGATTACTATATCGACG

Sequence | binding signal (log2 normalized fluorescence)
TGAGCCGATGTA | -0.683
TGAAAACTCGTA | -0.502
TGACCTGGGGTA | 0.0286
TGAGGCACGGTA | 0.498
TGATCTTCCGTA | -1.11
TGAGGTCAAGTA | -0.669
TGACCAACTGTA | -0.224
TGAAGCACTGTA | 0.287
TGACTTTGTGTA | -0.492
TGAGTGGATGTA | 0.0423
TGAGTACTCGTA | -0.771
TGACGCGTGGCA | 3.12
TGAGTGAGGGTA | -0.0605
TGACTTTCTGTA | -0.943
TGATGGCAAGTA | 0.257
TGACACTTGGCA | 0.568
TGACGTCCTGTA | -0.423
TTACACGTTGTC | 3.27
TGATCGTCAGTA | -0.695
TGACCAGAGGTA | -0.618
TGATCGATCGTA | -0.949
TGAAATTACGTA | -0.721

Sequence | binding signal (log2 normalized fluorescence)
TGACTGGGGGTA | 1.41
TGAAGCATTGTA | 1.13
TGGTACGTGGTA | 1.19
TGATAATGCGTA | -0.015
TGAGGTCCCGTA | -0.331
TGACGGTGTGTA | 0.665
TGAACATCGGTA | -0.121
TGACTTAACGTA | -0.215
TGACAGATGGTA | 1.4
TGAGATCGTGTA | 0.277
TGATACGAAGTA | -0.744
TGATCATGTGTA | 2.73
TGATCAGGAGTA | 0.593
TGATCCTGGGTA | -0.943
TGACAGCCTGTA | 0.72
TGAACTCCGGTA | -0.81
TGACAGGTTGTA | 0.711
TGATCACTCGTA | -0.292
CTACACGTGGTA | 3.31
TGATTCTTTGTA | -1.29
TAACACAAGGTA | 2.35
TGATACATTGTA | -0.543

Sequence | binding signal (log2 normalized fluorescence)
TGATCATACGTA | 0.302
TGACGTTTAGTA | -0.408
TGAGACAGCGTA | -0.544
TGACGCTGGGTA | -0.533
TGAGACCGAGTA | -1.05
TGATAATCGGTA | -1.07
TGAAGAGATGTA | -0.412
TGAAAGGAAGTA | -0.663
TGATAATGGGTA | -0.612
AGGCACGTGGTA | 3.21
TGAATCAACGTA | -0.41
TGATGCTCGGTA | 0.119
TGAGCAGATGTA | 0.957
TGAAGTGACGTA | -0.131
TGAGTGTTTGTA | -0.151
TGAGGATGTGTA | -0.391
TGAATTCTCGTA | -0.722
TGAATAGCTGTA | -0.726
TGAGACAGGGTA | -0.698
TGAGCCATCGTA | -0.647
TGATAGGGAGTA | -0.901
TGATGGATAGTA | -0.261

Sequence | binding signal (log2 normalized fluorescence)
TGGCACAAGGTA | 2.04
TGAGTACAAGTA | -0.809
TGACCCTAAGTA | -0.499
TGAGCAGGTGTA | 1.83
TGAGTCCACGTA | 0.193
TGATCCCGGGTA | -0.935
TGAGAACGCGTA | 0.0351
TGACTCCGCGTA | -0.516
TGATGGCGGGTA | 0.267
TGACCTTGCGTA | 0.58
TGACAAGGAGTA | -0.357
TGAGTGCGTGTA | 1.52
TGAGGCGATGTA | -0.618
TGACTAGCTGTA | -1.13
TGAGTTAGAGTA | -0.886
TGAGACGCGGTA | -0.302
TGAATATCTGTA | -1.31
TGAGGGCTCGTA | -0.526
TGACGGCTCGTA | -0.779
TGACAGCATGTA | 2.89
TGAACCGCTGTA | -0.243
